# From PubChem BioAssay AID602310 (National Center for Advancing Translational Sciences (NCATS), 2012)
# “And” between values parts separate entries of the source, which are not always exact repeats. Identical values can stand only once. Out of some 410,000 compounds screened, about 310 (0.076%) were called active. This list was built around the results that the source calls inconclusive (neither active nor inactive); the mix of calls is not that of the screen. Calls follow the shape of the dose curve; as a rule, active = well fitted curve in the direction sought with a large enough effect; inconclusive = small, poorly fitted or top-dose-only effect; inactive = flat fitted curve, though single readings scatter. Where the call is inconclusive, the potency comes from a doubtful curve fit.
# Molecular target: DNA dC->dU-editing enzyme APOBEC-3G (Homo sapiens) (UniProt Q9HC16)
# Chain of UniProt Q9HC16 (Q9HC16 whole entry, looked up): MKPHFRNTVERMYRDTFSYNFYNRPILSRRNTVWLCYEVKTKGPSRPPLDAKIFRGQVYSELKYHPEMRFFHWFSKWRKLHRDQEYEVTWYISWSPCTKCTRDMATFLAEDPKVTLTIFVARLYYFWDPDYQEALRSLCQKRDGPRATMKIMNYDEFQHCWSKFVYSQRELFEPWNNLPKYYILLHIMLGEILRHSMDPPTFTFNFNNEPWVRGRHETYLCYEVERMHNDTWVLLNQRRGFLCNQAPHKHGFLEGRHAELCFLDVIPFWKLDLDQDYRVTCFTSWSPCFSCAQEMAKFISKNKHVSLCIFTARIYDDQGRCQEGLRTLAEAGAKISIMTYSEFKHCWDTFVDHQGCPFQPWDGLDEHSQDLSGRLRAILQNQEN
# Assay: qHTS for Inhibitors of Vif-A3G Interactions: qHTS; also: nearly all actives have a fitted effect of over 60% in size
# Conditions: HeLa A3G-eYFP + Vif (tagged APOBEC3G with the HIV-1 protein that degrades it), YFP fluorescence, overnight; series mostly up to 46.1 µM
# Outline: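 Read-out is eYFP fluorescence (Ex 488/Em 500-530) from Vif-expressing HeLa A3G-eYFP cells; more signal means A3G escaped Vif-mediated degradation. Cells plated overnight, compound pinned in, incubated overnight at 37 deg C.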
# Potency is read from the fitted curve at half-maximal effect; tags tell the direction and shape of the fitted curve.
row,Compound,Potency
1,N#C/C(=C\c1cccnc1)c1nc2ccccc2[nH]1,"inconclusive: 11.2 µM [inhibitor, partial curve]"
2,O=S(=O)(Nc1nc2ccccc2nc1Cl)c1ccc2ccccc2c1,"inconclusive: 28.2 µM [inhibitor, single point]"
3,CCOc1ccc(NC(=O)C2(c3cccs3)CCOCC2)cc1,inactive
4,O=C1C(SCCO)=C(SCCO)C(=O)c2ccccc21,"inconclusive: 4.47 µM [inhibitor, single point] and inconclusive: 5.62 µM [inhibitor, single point]"
5,Cc1ccc(/C=N/NC(=O)c2cc(-c3cccnc3)nc3ccccc23)cc1,"inconclusive: 1 µM [inhibitor, full curve, poor fit]"
6,COc1cc(/C=C/C(=O)CC(=O)/C=C/c2ccc(O)c(OC)c2)ccc1O,"inconclusive: 35.5 µM [inhibitor, single point] and inconclusive: 25.1 µM [inhibitor, single point]"
7,O=c1cc(-c2ccccc2)[nH]c2cc(Cl)ccc12,"inconclusive: 1.12 µM [inhibitor, full curve]"
8,CCn1c(SCC(=O)N/N=C/c2ccc(C)s2)nc2ccccc21,"inconclusive: 5.01 µM [inhibitor, full curve]"
9,CCNc1ccc(Br)cc(C(=O)/C=C/c2ccc(Cl)cc2)c1=O,"inconclusive: 7.08 µM [inhibitor, full curve, poor fit]"
10,C=CCOC(=O)c1[nH]c2c(c1C)C(=O)CC(c1ccco1)C2 (stereo not drawn),"inconclusive: 0.316 µM [inhibitor, full curve, poor fit]"
11,COC(=O)N/N=C\c1ccccc1OC/C=C/c1ccccc1,"inconclusive: 35.5 µM [inhibitor, single point]"
12,CNC(=O)c1nnsc1S(=O)(=O)c1ccc(Cl)cc1,"inconclusive: 22.4 µM [inhibitor, single point]"
13,CCc1ccc(-c2[nH]nc3nc(-c4ccc(OC)cc4)cc(C(=O)NCCc4ccc(OC)c(OC)c4)c23)cc1,"inconclusive: 20 µM [inhibitor, single point]"
14,Cc1ccc(/C=N/Nc2nc(C)cc(C)n2)cc1,inactive
15,CCOC(=O)/C=c1\s/c(=C\c2c(OC)ccc3ccccc23)c(=O)n1CC(=O)NCC1CCCO1 (stereo not drawn),active: 10 µM
16,Cn1c(/C(C#N)=C/c2ccc(O)cc2)nc2ccccc21,inactive
17,CCOc1ccc(N2C(=O)CC(N)C2=O)cc1 (stereo not drawn),"inconclusive: 25.1 µM [inhibitor, single point]"
18,CCn1c(=O)c(=O)n(CC)c2cc(N3CCCCC3)c(NC(=O)c3cccc(F)c3)cc21,inactive
19,CC(C)(C)c1nnc(NC(=O)CS(=O)(=O)Cc2ccccc2)s1,inactive
20,O=C(CC1Sc2ccccc2NC1=O)NNc1ccc(Cl)cc1Cl (stereo not drawn),inactive
21,COc1cc(/C=C(/C(=O)O)c2ccc(-c3ccccc3)cc2)cc(OC)c1OC,"inconclusive: 12.6 µM [inhibitor, partial curve, poor fit]"
22,COc1ccc(NC(=O)C2(C)Cc3c(-c4cccc(NC(C)=O)c4)ccnc3O2)cc1OC (stereo not drawn),"inconclusive: 12.6 µM [inhibitor, partial curve]"
23,Cc1ccc2c(c1)N(C(=O)NCc1ccccc1)CCO2,inactive

row,Compound,Potency
1,c1ccc(-c2cn3nc(-c4ccccc4)c(-c4ccccc4)nc3n2)cc1,"inconclusive: 35.5 µM [inhibitor, single point]"
2,C=CCOc1ccc2cccc(/C=N/NC(=O)c3cc4cc([N+](=O)[O-])ccc4s3)c2c1,inactive
3,Cc1ccc(-n2ncc3c(=O)n(CC(=O)NCc4ccco4)cnc32)cc1,inactive
4,CCOC(=O)C1=C(C)NC(C)=C(C(=O)OCC)C1c1cc2ccc(C)cc2[nH]c1=O,"inconclusive: 5.62 µM [inhibitor, full curve, poor fit]"
5,COc1ccc(C(O)Cn2ccsc2=NC(C)=O)cc1 (stereo not drawn),"inconclusive: 12.6 µM [inhibitor, partial curve, poor fit]"
6,O=C1c2[nH]nc(-c3ccccc3O)c2C(c2ccccc2F)N1Cc1ccncc1 (stereo not drawn),"inconclusive: 3.55 µM [inhibitor, single point]"
7,Cn1cc(C2OC(=O)c3ccccc32)c2ccccc21 (stereo not drawn),"inconclusive: 35.5 µM [inhibitor, single point]"
8,O=C(N/N=C\C=C\c1ccc([N+](=O)[O-])o1)c1cccs1,active: 10 µM
9,Cc1ccc(Nc2c(N)c(=O)oc3ccccc23)cc1,"inconclusive: 35.5 µM [inhibitor, single point]"
10,COc1ccc(NC(=O)c2cccc(Oc3ccccc3)c2)cn1,"inconclusive: 3.55 µM [inhibitor, full curve, poor fit]"
11,O=C(CCCn1c(=O)c2ccccc2n(Cc2ccccc2)c1=O)NCc1ccco1,"inconclusive: 15.8 µM [inhibitor, single point]"
12,COc1ccc(NC(=O)N(C)[C@H]2C[C@H]3c4[nH]c5ccc(-c6ccc(OC)cc6)cc5c4CCN3C(=O)[C@H]2[C@H](C)O)cc1,"inconclusive: 25.1 µM [inhibitor, single point]"
13,OC(Cc1ccc2ccccc2n1)c1ccc(Cl)c(Cl)c1 (stereo not drawn),inactive
14,CNc1ccc(Br)cc(C(=O)/C=C/c2cccc(Cl)c2Cl)c1=O,"inconclusive: 35.5 µM [inhibitor, single point]"
15,Cc1ccc(Cn2cc(C(=O)NN)c(=O)c3ccc(F)cc32)cc1,"inconclusive: 22.4 µM [inhibitor, single point]"
16,CCOC(=O)c1c(NC(=O)COC(=O)C2CC2C)sc(C)c1C (stereo not drawn),inactive
17,Clc1ccc2[nH]c3c(N4CCC5(CC4)OCCO5)ncnc3c2c1,"inconclusive: 3.98 µM [inhibitor, single point]"
18,CCOc1ccc(NC(=O)C2CC3CCC2C3)cc1 (stereo not drawn),inactive
19,COc1cccc(NC(=O)CSc2nnc(-c3ccc(C)cc3)o2)c1,inactive
20,CN(C)c1ccc(/C=C(\Cl)c2nc3ccccc3s2)cc1,"inconclusive: 7.94 µM [inhibitor, partial curve, poor fit]"
21,N#C/C(=C/c1ccc(Br)s1)C(=O)NCCc1c[nH]c2ccccc12,"inconclusive: 25.1 µM [inhibitor, single point]"
22,Cc1cc2c(c(C)c1CCO[C@@H]1O[C@H](CO)[C@@H](O)[C@H](O)[C@H]1O)C(=O)[C@@H](C)[C@@H]2O,"inconclusive: 35.5 µM [inhibitor, single point]"
23,O=C(N/N=C/C=C/c1ccco1)C(O)c1ccccc1 (stereo not drawn),inactive

row,Compound,Potency
1,CCCC1=Nc2cc(C(=O)NCc3ccccc3)ccc2Sc2ccccc21,"inconclusive: 1.58 µM [inhibitor, partial curve, poor fit]"
2,CCOc1ccc(C2c3cc(OC)c(OC)cc3CC(=O)N2c2ccc(OC)cc2)cc1 (stereo not drawn),"inconclusive: 11.2 µM [inhibitor, single point]"
3,CC(=O)Nc1nc(COc2ccccc2)cs1,inactive
4,Cc1cc(C)n(-c2nc(NC(C)C)nc(NC(C)C)n2)n1,inactive
5,COc1ccc(OC)c(N/C=C/C(=C(C#N)C#N)N(C)C)c1,"inconclusive: 25.1 µM [inhibitor, single point]"
6,CC(=O)Nc1cccc(-c2ccnc3c2CC(C(=O)NCc2ccc(N(C)C)cc2)O3)c1 (stereo not drawn),"inconclusive: 8.91 µM [inhibitor, partial curve, poor fit]"
7,NC(=O)c1ccc(NC(=O)C#Cc2ccccc2)cc1,"inconclusive: 12.6 µM [inhibitor, partial curve]"
8,Cc1cc(C(=O)CCl)c(C)n1Cc1ccco1,"inconclusive: 20 µM [inhibitor, single point]"
9,O=C1CCC(C(=O)N2CCCC(C(=O)c3ccc4c5c(cccc35)CC4)C2)=NN1 (stereo not drawn),"inconclusive: 14.1 µM [inhibitor, single point]"
10,O=S(=O)(CC(CN1CCCCC1)N1CCCCC1)c1ccc2ccccc2c1 (stereo not drawn),"inconclusive: 10 µM [inhibitor, partial curve, poor fit]"
11,CCCN1C(=O)/C(=C/c2ccc(N3CCOCC3)cc2)NC1=S,"inconclusive: 25.1 µM [inhibitor, single point]"
12,CCCc1nc2c(C)cc(Br)cn2c1Cc1ccccc1,"inconclusive: 15.8 µM [inhibitor, partial curve, poor fit]"
13,CCn1c(=O)c2sccc2n2c(CCCC(=O)N3CCN(c4cc(C)ccc4C)CC3)nnc12,inactive
14,COc1ccc2c(c1)NC(c1cc(Cl)cc(Cl)c1O)c1cccn1-2 (stereo not drawn),inactive
15,Cc1ccc(C)c(N2CCN(C(=O)c3ccc(CS(=O)(=O)c4ccccc4C)o3)CC2)c1,"inconclusive: 5.62 µM [inhibitor, single point]"
16,COc1ccc(N2CC(C(=O)Nc3cc(C(F)(F)F)ccc3N3CCCC3)CC2=O)c(OC)c1 (stereo not drawn),"inconclusive: 15.8 µM [inhibitor, single point]"
17,COc1cc(C(=O)OCC(=O)Nc2ccc(N3CCOCC3)cc2)ccc1OCC(C)C,active: 7.94 µM
18,CC(C)OC(=O)c1cc(C(=O)c2cc(Cl)ccc2O)coc1=N,inactive
19,Clc1ccc(-n2ncc3c(NCc4ccco4)ncnc32)cc1,"inconclusive: 2.51 µM [inhibitor, full curve, poor fit]"
20,COc1cccc(Nc2nc(N)c([N+](=O)[O-])c(NCc3ccco3)n2)c1,"inconclusive: 28.2 µM [inhibitor, single point]"
21,CCc1cccc(NC(=O)Cn2c(-c3ccc(F)cc3)cc(C(C)=O)c2C)c1,inactive
22,Cc1cccc(C)c1OCC(=O)Nc1ccc2c(c1)OCCO2,"inconclusive: 6.31 µM [inhibitor, partial curve, poor fit]"
